# Experimental data taken from the supplement of paper PMC8728848.
# This is one part of the list.
# B1: NESD (Drosophila melanogaster), NP_610025.1 (protein)
# chain: MGHHHHHHSSGVDLGTENLYFQSMMEVFTFEKSYLERLKEAEAVLSWEGAVMPASQVRSEWKSYVELKIEPAGWQAIWKIPRVICEDLKLRYPTIVYGYVEQVIFDELKAVFVVTAVQDSDVHLPESNEVSLVELWPTVQQENAALNVDTTAECIDRLRFFYTHVWMPWDKDYDDDRDWVQQHLQARIQLVCDLSKNRLPRPLALHMRTLLAEAKYIQQRLDYLELDLSDAESDDEAVELNDSVAEPARKQSKAGSANGCLNVSSLPVTDLMCLHLRMAIIRSEFEILENPEMRRAYSELQSNSLKRLRCSSGRTRQSEDLLVERNSISHVVTLPGKLQQQLELLKLAQTLVKPESKVQLSNTLQDVLSICQSNDDILLSPGEHTIKFLEHLNDNGSLRGLTQPEAILSPAADLSLLPVVCSSDEDSTLLVIDGDYTLSELVLDCRHVRRGILLRNGTLTMRGCRLLGDGSSSTQEGIVCMPGASVELKSCLIENFAVGVSMRPKSSAELGSVQFKTCKTGLELLEKSASVNLQGSKCSFENCALGILADGFVLGEQRTEKVLVLNKFSELQRYNEDNLLGNCSFYNCKKNVRVFNESGQLLAQRSHQQLLEDELGGENKENIQLV
# Tests used:
# Test in all cases: glycan array binding signal (z-score within array); higher = stronger binding
# Conditions in all cases: glycan notation: IUPAC condensed, linker removed
# [1] = target: Neu5Ac(a2-6)Gal(b1-4)GlcNAc(b1-2)Man(a1-3)[Gal(b1-4)GlcNAc(b1-2)Man(a1-6)]Man(b1-4)GlcNAc(b1-4)GlcNAc
# Method in brief: (§1)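 Arrays were curated from the Consortium for Functional Glycomics database, 3228 in total, and kept only where the protein sequence was available. Binding is expressed as a within-array Z-score. This score was averaged across arrays of the same protein sequence at different concentrations or buffers and across linkers, and negative values can be read as non-binding.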
# [2] = target: Neu5Ac(a2-6)Gal(b1-4)GlcNAc(b1-2)Man(a1-3)[GlcNAc(b1-2)Man(a1-6)]Man(b1-4)GlcNAc(b1-4)GlcNAc
# Method in brief: as §1
# [3] = target: Neu5Ac(a2-6)Gal(b1-4)GlcNAc(b1-2)Man(a1-3)[GlcNAc(b1-2)Man(b1-4)GlcNAc(b1-2)Man(a1-6)]Man(b1-4)GlcNAc(b1-4)GlcNAc
# Method in brief: as §1
# [4] = target: Neu5Ac(a2-6)Gal(b1-4)GlcNAc(b1-2)Man(a1-3)[Neu5Ac(a2-6)Gal(b1-4)GlcNAc(b1-2)Man(a1-6)]Man(b1-4)GlcNAc(b1-4)GlcNAc
# Method in brief: as §1
# [5] = target: Neu5Ac(a2-6)Gal(b1-4)GlcNAc(b1-2)Man(a1-6)[Gal(b1-4)GlcNAc(b1-2)Man(a1-3)]Man(b1-4)GlcNAc(b1-4)GlcNAc
# Method in brief: as §1
# [6] = target: Neu5Ac(a2-6)Gal(b1-4)GlcNAc(b1-2)Man(a1-6)[GlcNAc(b1-2)Man(a1-3)]Man(b1-4)GlcNAc(b1-4)GlcNAc
# Method in brief: as §1
# [7] = target: Neu5Ac(a2-6)Gal(b1-4)GlcNAc(b1-3)Gal(b1-4)GlcNAc
# Method in brief: as §1
# [8] = target: Neu5Ac(a2-6)Gal(b1-4)GlcNAc(b1-3)Gal(b1-4)[Fuc(a1-3)]GlcNAc(b1-3)Gal(b1-4)[Fuc(a1-3)]GlcNAc
# Method in brief: as §1
# [9] = target: Neu5Ac(a2-6)Gal(b1-4)GlcNAc6S
# Method in brief: as §1
# [10] = target: Neu5Ac(a2-6)GalNAc
# Method in brief: as §1
# [11] = target: Neu5Ac(a2-6)GalNAc(b1-4)GlcNAc
# Method in brief: as §1
# [12] = target: Neu5Ac(a2-8)Neu5Ac
# Method in brief: as §1
# [13] = target: Neu5Ac(a2-8)Neu5Ac(a2-3)Gal(b1-4)Glc
# Method in brief: as §1
# [14] = target: Neu5Ac(a2-8)Neu5Ac(a2-3)[GalNAc(b1-4)]Gal(b1-4)Glc
# Method in brief: as §1
# [15] = target: Neu5Ac(a2-8)Neu5Ac(a2-8)Neu5Ac
# Method in brief: as §1
# [16] = target: Neu5Ac(a2-8)Neu5Ac(a2-8)Neu5Ac(a2-3)Gal(b1-4)Glc
# Method in brief: as §1
# [17] = target: Neu5Ac(a2-8)Neu5Ac(a2-8)Neu5Ac(a2-3)[GalNAc(b1-4)]Gal(b1-4)Glc
# Method in brief: as §1
# [18] = target: Neu5Ac(a2-8)Neu5Ac(a2-8)Neu5Ac(a2-8)Neu5Ac(a2-3)[GalNAc(b1-4)]Gal(b1-4)Glc
# Method in brief: as §1
# [19] = target: Neu5Ac(b2-6)Gal(b1-4)GlcNAc
# Method in brief: as §1
# [20] = target: Neu5Ac(b2-6)GalNAc
# Method in brief: as §1
# [21] = target: Neu5Ac9Ac(a2-6)Gal(b1-4)GlcNAc
# Method in brief: as §1
# [22] = target: Neu5Gc(a2-3)Gal(b1-3)GlcNAc
# Method in brief: as §1
# [23] = target: Neu5Gc(a2-3)Gal(b1-3)[Fuc(a1-4)]GlcNAc
# Method in brief: as §1
# [24] = target: Neu5Gc(a2-3)Gal(b1-4)Glc
# Method in brief: as §1
# [25] = target: Neu5Gc(a2-3)Gal(b1-4)GlcNAc
# Method in brief: as §1
# [26] = target: Neu5Gc(a2-3)Gal(b1-4)[Fuc(a1-3)]GlcNAc
# Method in brief: as §1
# [27] = target: Neu5Gc(a2-6)Gal(b1-4)GlcNAc
# Method in brief: as §1
# [28] = target: Neu5Gc(a2-6)GalNAc
# Method in brief: as §1
# [29] = target: Neu5Gc(b2-6)Gal(b1-4)GlcNAc
# Method in brief: as §1
binder,measurement,setting,value
B1,glycan array binding signal (z-score),[1],0.256
same,glycan array binding signal (z-score),[2],-0.23
same,glycan array binding signal (z-score),[3],-0.094
same,glycan array binding signal (z-score),[4],-0.177
same,glycan array binding signal (z-score),[5],-0.271
same,glycan array binding signal (z-score),[6],-0.447
same,glycan array binding signal (z-score),[7],-0.075
same,glycan array binding signal (z-score),[8],0.384
same,glycan array binding signal (z-score),[9],0.162
same,glycan array binding signal (z-score),[10],-0.34
same,glycan array binding signal (z-score),[11],0.166
same,glycan array binding signal (z-score),[12],0.138
same,glycan array binding signal (z-score),[13],-0.619
same,glycan array binding signal (z-score),[14],-0.257
same,glycan array binding signal (z-score),[15],-0.204
same,glycan array binding signal (z-score),[16],-0.196
same,glycan array binding signal (z-score),[17],0.063
same,glycan array binding signal (z-score),[18],-0.199
same,glycan array binding signal (z-score),[19],-0.286
same,glycan array binding signal (z-score),[20],-0.401
same,glycan array binding signal (z-score),[21],-0.403
same,glycan array binding signal (z-score),[22],-0.276
same,glycan array binding signal (z-score),[23],-0.219
same,glycan array binding signal (z-score),[24],-0.037
same,glycan array binding signal (z-score),[25],-0.221
same,glycan array binding signal (z-score),[26],0.166
same,glycan array binding signal (z-score),[27],-0.592
same,glycan array binding signal (z-score),[28],-0.265
same,glycan array binding signal (z-score),[29],-0.247
